The record followed here is publication PMC6919601, “Identification of Plasmodium dipeptidyl aminopeptidase allosteric inhibitors by high throughput screening” (PLoS ONE, 2019).

Values joined by “and” are separate entries in the source; they are usually repeats but may differ in a detail not shown here. Identical values can stand only once. The whole screen tested about 110,000 compounds, of which about 230 (0.21%) showed an effect of 50% or more. The list shows a part of the results.
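Further: 30 min substrate incubation versus DMSO and 10 µM JCP410 controls.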

Chain of DPAP1 (Q8IIJ9 whole entry, looked up): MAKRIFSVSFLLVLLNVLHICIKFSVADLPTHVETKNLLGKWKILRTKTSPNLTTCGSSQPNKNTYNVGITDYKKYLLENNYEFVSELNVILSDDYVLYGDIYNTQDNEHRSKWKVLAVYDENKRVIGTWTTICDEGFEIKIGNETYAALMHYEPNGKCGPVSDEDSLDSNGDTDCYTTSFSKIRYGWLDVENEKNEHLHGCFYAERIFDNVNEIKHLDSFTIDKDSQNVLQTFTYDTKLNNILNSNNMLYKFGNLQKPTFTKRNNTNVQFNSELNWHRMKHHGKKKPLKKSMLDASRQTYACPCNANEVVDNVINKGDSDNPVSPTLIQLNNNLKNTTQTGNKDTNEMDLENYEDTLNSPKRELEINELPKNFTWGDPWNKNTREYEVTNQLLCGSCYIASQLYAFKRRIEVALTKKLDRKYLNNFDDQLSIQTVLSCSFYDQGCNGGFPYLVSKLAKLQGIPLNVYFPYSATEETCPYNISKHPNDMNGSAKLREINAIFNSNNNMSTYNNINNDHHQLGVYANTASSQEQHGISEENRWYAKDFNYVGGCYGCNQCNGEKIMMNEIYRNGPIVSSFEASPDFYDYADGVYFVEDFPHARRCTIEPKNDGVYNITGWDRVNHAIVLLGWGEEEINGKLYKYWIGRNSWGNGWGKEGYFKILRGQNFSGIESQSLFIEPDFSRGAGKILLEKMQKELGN

The assay addresses DPAP1 (Plasmodium falciparum, UniProt Q8IIJ9). Description: primary screen, percent inhibition; read by cleavage of a fluorogenic dipeptide substrate; higher = more effect of the substance. The arrangement: species or system P. falciparum D10 trophozoite lysates; single well.
As for `Cc1oc(-c2ccccc2Cl)nc1CSCC(=O)NCCc1ccc(Cl)cc1`, the “% Inhibition @ 10 uM” value was -2.85%.
Under `O=C(NC1CCCCC1)c1ccccc1NS(=O)(=O)c1ccc(Br)s1` stands -2.92%.
On to `CN(Cc1ccccc1)S(=O)(=O)c1nnc(NC(=O)/C=C/c2ccccc2)s1`, for which the “% Inhibition @ 10 uM” value is listed as 0.522%.
As for `Cc1cccc(-n2c(C)nc3cc(C(=O)N4CCC5(CC4)OCCO5)ccc32)c1`, the “% Inhibition @ 10 uM” value is 2.84%.
Regarding `COCCCNc1sc(S(C)(=O)=O)nc1S(=O)(=O)c1ccc(Cl)cc1`, the “% Inhibition @ 10 uM” value is on record as -4.04%.
As to `CC1CN(S(=O)(=O)c2ccc(Cl)cc2)CCN1S(=O)(=O)c1ccc(Cl)cc1` (stereo not drawn), the “% Inhibition @ 10 uM” value is 2.26%.
Regarding `CCN1CCN(c2oc(-c3ccccc3)nc2C#N)CC1`, the “% Inhibition @ 10 uM” value was -4.93%.
Regarding `O=C(Nc1nc(COc2ccccc2)cs1)C12CC3CC(CC(C3)C1)C2`, the “% Inhibition @ 10 uM” value is listed as -6.59%.
`CCC(=O)c1c(O)c2ccccc2n(C)c1=O`: the “% Inhibition @ 10 uM” value is -5.92%.
For the compound `CCOc1cc(-c2c(C#N)c(N)nc3c2CCCC3C)ccc1O` (stereo not drawn), the “% Inhibition @ 10 uM” value stood at 8.82%.
Consider `COc1ccc(-c2cn3cccnc3n2)cc1F`, for which the “% Inhibition @ 10 uM” value is given as -1.52%.
As to `Cc1ccc(N(CC(=O)N2CCN(Cc3ccccc3)CC2)S(=O)(=O)c2ccc(F)cc2)cc1`, the “% Inhibition @ 10 uM” value was 3.09%.
Take `CC(C)c1ccc(OCC(O)CN2CCCC2)cc1` (stereo not drawn): the “% Inhibition @ 10 uM” value is given as -2.81%.
Regarding `O=C(NCc1ccccc1Cl)c1cnn2c3c(cnc12)CCCCC3`, the “% Inhibition @ 10 uM” value is -3.57%.
Regarding `COc1ccc(/C=C/C2=NC(=C\c3ccccc3F)/C(=O)O2)cc1`, the “% Inhibition @ 10 uM” value came to 5.63%.
For the compound `O=C(c1cc2nc(-c3ccccc3)cc(C(F)(F)F)n2n1)N1CCN(c2ccc(F)cc2)CC1`, the “% Inhibition @ 10 uM” value was determined as 4.88%.
`O=C1c2ccccc2C(=O)N1CCCC(=O)n1cccn1`: the “% Inhibition @ 10 uM” value turned out to be 1.76%.
Turning to `COc1ccccc1CC(=O)O/N=C(\N)c1ccncc1`, the “% Inhibition @ 10 uM” value is given as -1.33%.
As for `O=S(=O)(c1cc(Cl)ccc1Cl)N1CCN(c2ccc(F)cc2)CC1`, the “% Inhibition @ 10 uM” value was determined as 2.99%.
Take `C=CCNc1cc(-c2ccccc2)nc2nncn12`: the “% Inhibition @ 10 uM” value stood at 0.895%.
As for `COc1ccc(C2C(=O)N(C3CCCCCC3)CC(=O)N2Cc2ccccc2OC)cc1` (stereo not drawn), the “% Inhibition @ 10 uM” value was found to be 1.16%.
Consider `CCCOC(=O)c1ccc(NC(=O)c2ccc(OC)cc2)cc1`, for which the “% Inhibition @ 10 uM” value came out at 3.53%.
With `CC1(C)Cc2c(ccc3ccccc23)/C(=C\C(=O)N2CCCC2)N1` the figure was 1.02%.
With `COc1ccc(C2C(C#N)=C(N)OC3=C2C(=O)CC(c2ccccc2Cl)C3)cc1` (stereo not drawn) the figure was 4.7%; with `N#CCNC(=O)[C@H](Cc1ccc2ccccc2c1)NC(=O)c1ccccc1`, -5.21%.
Turning to `CCCCN1CC2CC=C(Cl)CC2C1` (stereo not drawn), the “% Inhibition @ 10 uM” value came out at 2.56%.
Take `Cc1ccc(-c2ccc(/C=c3/sc4nc5ccccc5n4c3=O)o2)cc1Cl`: the “% Inhibition @ 10 uM” value is 4.32%.
Under `CC(C)COc1cccc(C(=O)Nc2ccc(F)cc2F)c1` stands -3.77%; under `O=C1CSC(c2ccccc2Br)N1c1ccc(Cl)cn1` (stereo not drawn), 0.605%; under `Cc1nn(C(=O)CCCC(=O)NCc2ccccc2Cl)c2ccccc12`, -1.11%.
Take `COc1ccc(NC(=O)CN(Cc2ccc(Cl)c(Cl)c2)S(=O)(=O)c2ccccc2)cc1`: the “% Inhibition @ 10 uM” value came to 4.25%.
For `COc1ccccc1OCC(=O)N(Cc1nc(-c2cccc(C)c2)no1)C1CCCCC1`, the “% Inhibition @ 10 uM” value is given as 3.74%.
For the compound `Cc1ccccc1CCNC(=O)Cn1ccc2cc(S(=O)(=O)N3CCCC3)ccc21`, the “% Inhibition @ 10 uM” value stood at 22.8%.
For `CCOc1ccc(Nc2nc(C)cc(C)c2C(N)=O)cc1`, the “% Inhibition @ 10 uM” value is -7%.
Turning to `Cc1cccc(S(=O)(=O)Nc2cccc(-c3cn4ccsc4n3)c2)c1`, the “% Inhibition @ 10 uM” value is on record as -0.413%.
Consider `COc1ccc(N2C(=O)/C(=C\c3ccccc3OC)N=C2c2ccccc2)cc1`, for which the “% Inhibition @ 10 uM” value was 6.82%.
In the case of `CNC(=S)N(CCc1c(C)[nH]c2ccc(Cl)cc12)Cc1ccccn1`, the “% Inhibition @ 10 uM” value is reported as -4.14%.
On to `Cc1ccc(S(=O)(=O)Cc2ccc(C(=O)NC3CCCC3)o2)cc1`, for which the “% Inhibition @ 10 uM” value is given as -1.28%.
With `CC1CCCC(NC(=O)CCCN2C(=O)CSc3ncccc32)C1C` (stereo not drawn), the “% Inhibition @ 10 uM” value is reported as -4.15%.
Take `O=C(Nc1ccc(Br)c2cccnc12)c1ccc(Cn2cc(Cl)cn2)cc1`: the “% Inhibition @ 10 uM” value is listed as -1.64%.
As to `CC(C)(CO)Nc1nc(N2CCOCC2)nc(N2CCOCC2)n1`, the “% Inhibition @ 10 uM” value was 2.56%.
Under `CCC(C)N(Cc1ccc(F)cc1)S(=O)(=O)c1ccc(S(=O)(=O)NC2CCCC2)cc1` (stereo not drawn) stands -1.31%; under `CC(C)c1c(C#N)c(N)nc(SCC(=O)c2cc3ccccc3oc2=O)c1C#N`, 8.38%.
For the compound `Cc1nc2nc(NC(=O)C(C)(C)C)nn2c(O)c1C`, the “% Inhibition @ 10 uM” value was found to be 5.2%.
As to `O=C(CSc1c2c(nc3ccccc13)CCCC2)N1CCN(c2ccccn2)CC1`, the “% Inhibition @ 10 uM” value is reported as -5.34%.
Consider `O=C1C2CC=CCC2C(=O)N1c1ccc(Cl)cc1` (stereo not drawn), for which the “% Inhibition @ 10 uM” value was found to be 6.14%.
With `Cc1ccc(-c2noc(CNC(=O)c3cc(C)cc(C)c3)n2)cc1`, the “% Inhibition @ 10 uM” value was -1.22%.
Consider `CCc1ccc(OCC(=O)NCc2ccccc2)cc1`, for which the “% Inhibition @ 10 uM” value is recorded as -3.09%.
With `Clc1ccccc1CSc1nc2ccccc2[nH]1` the figure was 6.06%.
Turning to `COc1cccc(CSc2nc3nccnc3c(=O)n2CCc2c[nH]c3ccccc23)c1`, the “% Inhibition @ 10 uM” value was -1.26%.
`COc1cccc(NC(=O)CN(c2cc(C)ccc2C)S(=O)(=O)c2ccccc2)c1`: the “% Inhibition @ 10 uM” value was -1.55% and 2.08%.
